Assay results as given in the supplement of paper PMC3694890.
± gives the uncertainty stated by the source. Some of the results follow. A small y stands for phosphotyrosine.

B1: P85B_605/A1 (peptide)
chain: yALMED
B2: PDGFRA_849/A1 (peptide)
chain: yVSKGS
B3: P85B_467/A1 (peptide)
chain: yTRTSQ
B4: PDGFRB_589/A1 (peptide)
chain: yDSTWE
B5: PDGFRA_988/A1 (peptide)
chain: yIGVTY
B6: PA24A_535/A1 (peptide)
chain: yEPLDV
B7: PDGFRA_754/A1 (peptide)
chain: ySDIQR
B8: PDGFRA_1018/A1 (peptide)
chain: yIIPLP
B9: PDGFRB_1009/A1 (peptide)
chain: yTAVQP
B10: PDGFRA_742/A1 (peptide)
chain: yVPMLE
B11: PDGFRA_720/A1 (peptide)
chain: yVILSF
B12: PDGFRB_562/A1 (peptide)
chain: yEIRWK
B13: AT1A2_539/A1 (peptide)
chain: yMELGG
B14: PA24A_456/A1 (peptide)
chain: yQSDNQ
B15: PDGFRA_731/A1 (peptide)
chain: yMDMKQ
B16: PDGFRA_762/A1 (peptide)
chain: yDRPAS
B17: PDGFRA_768/A1 (peptide)
chain: yKKKSM

biological target: GRB2 (endogenous complexes from cell lysate), P62993; assay: GRB2 complex binding differential signal (pY peptide minus Ala control peptide) (fluorescence intensity units); higher = stronger GRB2 complex binding; conditions: MCF7
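Further: phosphopeptide probes on the chip at 1–4 µM, lysate proteins bound in 20 mM Tris pH 7.0 buffer with 140 mM NaCl, 1% Triton X-100 and 5% glycerol.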

| Binder | GRB2 complex binding differential signal |
| --- | --- |
| B1 | 219 ± 260 |
| B2 | 1200 ± 230 |
| B3 | 4530 ± 1100 |
| B4 | 8.45 ± 160 |
| B5 | 40.9 ± 310 |
| B6 | 766 ± 1200 |
| B7 | 1710 ± 610 |
| B8 | 3820 ± 3800 |
| B9 | 3930 ± 800 |
| B10 | 64 ± 460 |
| B11 | 238 ± 310 |
| B12 | 186 ± 140 |
| B13 | 328 ± 360 |
| B14 | 1330 ± 280 |
| B15 | 655 ± 490 |
| B16 | 5630 ± 1200 |
| B17 | 43.9 ± 370 |

same assay, conditions: MCF10A

| Binder | GRB2 complex binding differential signal |
| --- | --- |
| B1 | 105 ± 230 |
| B2 | 3210 ± 290 |
| B3 | 3350 ± 420 |
| B4 | 34.8 ± 120 |
| B5 | 46.4 ± 230 |
| B6 | 1440 ± 330 |
| B7 | 1080 ± 400 |
| B8 | 5570 ± 1300 |
| B9 | 3080 ± 1100 |
| B10 | 432 ± 190 |
| B11 | 98.9 ± 160 |
| B12 | -39.1 ± 940 |
| B13 | 278 ± 190 |
| B14 | 1740 ± 330 |
| B15 | 659 ± 220 |
| B16 | 4890 ± 1500 |
| B17 | 205 ± 400 |

same assay, conditions: MDA-MB-231

| Binder | GRB2 complex binding differential signal |
| --- | --- |
| B1 | 400 ± 330 |
| B2 | 1040 ± 670 |
| B3 | 1150 ± 330 |
| B4 | 134 ± 260 |
| B5 | 1240 ± 350 |
| B6 | 984 ± 980 |
| B7 | 720 ± 320 |
| B8 | 3990 ± 560 |
| B9 | 1860 ± 680 |
| B10 | 1030 ± 510 |
| B11 | 862 ± 320 |
| B12 | 550 ± 290 |
| B13 | 352 ± 280 |
| B14 | 993 ± 700 |
| B15 | 810 ± 370 |
| B16 | 1410 ± 380 |
| B17 | 547 ± 300 |

same assay, conditions: T47D

| Binder | GRB2 complex binding differential signal |
| --- | --- |
| B2 | 2900 ± 1300 |
| B3 | -323 ± 860 |
| B4 | 180 ± 1300 |
| B5 | 4250 ± 1200 |
| B6 | 3050 ± 1800 |
| B7 | 1790 ± 1400 |
| B8 | 4120 ± 1200 |
| B9 | 2360 ± 1500 |
| B10 | 1600 ± 1000 |
| B11 | 1650 ± 1300 |
| B12 | 693 ± 2700 |
| B13 | 180 ± 1000 |
| B14 | 1080 ± 1200 |
| B15 | 1290 ± 1400 |
| B16 | 1920 ± 1300 |
| B17 | 775 ± 1200 |
